Measured values published in PubChem BioAssay AID624417 (National Center for Advancing Translational Sciences (NCATS), 2012).
Among all 410,000 compounds or so, about 6,400 (1.6%) were called active. This list was built around the results that the source calls inconclusive (neither active nor inactive); the mix of calls is not that of the screen. Calls come from the whole dose curve; as a rule, active = well fitted inhibition curve with a large enough effect; inconclusive = small, poorly fitted or top-dose-only effect; inactive = no such curve, though single readings can be large or run the other way. Potencies of inconclusive entries are doubtful fits and often do not repeat.

target: Glucagon-like peptide 1 receptor (Homo sapiens) (UniProt P43220); assay: qHTS of GLP-1 Receptor Inverse Agonists (Inhibition Mode); settings: HEK293 GLP-1R CRE-luciferase, luminescence, 24 h, GLP-1R form is constitutively active; activity change, negative = inhibition: at 38.3 µM (top of the series) unless noted; note: nearly all actives have a fitted effect of over 55% in size
Sequence of UniProt P43220 (P43220 whole entry, looked up): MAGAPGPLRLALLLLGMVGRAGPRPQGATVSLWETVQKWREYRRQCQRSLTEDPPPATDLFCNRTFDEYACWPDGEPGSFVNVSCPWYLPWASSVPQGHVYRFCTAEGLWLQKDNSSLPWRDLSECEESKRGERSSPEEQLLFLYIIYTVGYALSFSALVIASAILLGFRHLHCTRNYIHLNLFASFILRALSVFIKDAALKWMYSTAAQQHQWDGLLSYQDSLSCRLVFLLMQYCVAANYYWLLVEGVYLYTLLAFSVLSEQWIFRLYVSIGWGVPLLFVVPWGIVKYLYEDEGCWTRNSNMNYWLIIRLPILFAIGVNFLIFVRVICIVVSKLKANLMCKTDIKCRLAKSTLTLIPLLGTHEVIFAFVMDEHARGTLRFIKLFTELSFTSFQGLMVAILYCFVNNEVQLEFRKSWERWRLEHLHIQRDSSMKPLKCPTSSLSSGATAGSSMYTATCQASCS
Method in brief: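 GLP-1R inverse agonism mode: basal reporter luminescence in engineered HEK293 cells measured after one day of compound exposure at 37 deg C, with a 12 min room-temperature detection step.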
% is set by controls: 0 for no effect and ±100 for the full control effect; potency is the fitted concentration of half-maximal effect; tags give direction and shape of the fitted curve.

Potency, inconclusive:
N#C/C(=C\c1ccco1)Sc1nc2ccccc2s1 28.2 µM [inhibitor, single point]
COc1cccc(C2=NO[C@@H]3C(=O)N(c4ccc5c(c4)OCCO5)C(=O)[C@H]23)c1OC 10 µM [inhibitor, single point]
CCc1ccccc1Nc1cc(C(=O)NCc2ccccn2)c2ccccc2n1 11.2 µM [inhibitor, partial curve, poor fit]
Cc1ccc(/C=N/NC(=O)CN(Cc2ccccc2)S(=O)(=O)c2ccc3c(c2)OCCO3)cc1 22.4 µM [inhibitor, partial curve, poor fit]
CC1=NNC(=O)/C1=C\c1cn(-c2ccccc2)nc1-c1ccc(Cl)cc1 28.2 µM [inhibitor, single point]
Cc1cc(S(=O)(=O)Nc2ccc3ccccc3c2)c(C)s1 8.91 µM [inhibitor, partial curve, poor fit]
O=C(NCCc1c[nH]c2ccccc12)C1CCCN(S(=O)(=O)c2ccccc2)C1 (configuration not stated) 7.08 µM [inhibitor, partial curve]
COC(=O)c1sc2nc(-c3ccccc3)nc(N3CCN(C)CC3)c2c1C 17.8 µM [inhibitor, partial curve, poor fit]
CSc1ccc(NC(=O)Nc2cccn(Cc3ccccc3F)c2=O)cc1 8.91 µM [inhibitor, partial curve, poor fit]
O=C(Nc1nc(-c2ccc3c(c2)OCO3)cs1)c1ccncc1 31.6 µM [inhibitor, single point]
CC(=O)N1CCCc2cc(S(=O)(=O)N(C)CC(=O)Nc3ccc(C(C)C)cc3)ccc21 20 µM [inhibitor, single point]
Cc1ccccc1CS(=O)(=O)c1ccc(C(=O)N2CCOCC2)cc1[N+](=O)[O-] 11.2 µM [inhibitor, single point]
C[C@H]1CCCCO[C@H](CN(C)CC2CCCCC2)[C@@H](C)CN([C@@H](C)CO)C(=O)c2cc(NS(=O)(=O)c3ccccc3)ccc2O1 28.2 µM [inhibitor, single point]
CC(C)Oc1ccc(CN2CCC2(C)C(=O)Nc2ccc(Cl)c(Cl)c2)cc1 (configuration not stated) 12.6 µM [inhibitor, single point]
COc1nc(/C=C/N(C)C)c([N+](=O)[O-])c(OC)n1 28.2 µM [inhibitor, single point]
CC(C)CNC(=S)N(Cc1ccco1)Cc1cc2cc3c(cc2[nH]c1=O)OCCO3 1.78 µM [inhibitor, partial curve, poor fit]
Cc1ccccc1C(=O)Nc1nnc(CC(=O)N/N=C/c2cn(Cc3ccccc3)c3ccccc23)s1 8.91 µM [inhibitor, partial curve]
N#Cc1ccc(CSc2nnc(-c3cccs3)n2-c2ccccc2)cc1 11.2 µM [inhibitor, single point]
COc1ccc(S(=O)(=O)N[C@@H](Cc2ccc(Cl)cc2)C(=O)N2CC[C@@]3(O)CCCC[C@H]3C2)cc1 10 µM [inhibitor, single point]
CCCCCCCCC(c1nc2ccccc2[nH]1)N1CCN=C1c1cc2ccccc2[nH]1 (configuration not stated) 25.1 µM [inhibitor, single point]
CCc1ccc2c(c1)NC(=O)C2(C)Cc1ccc(Cl)s1 (configuration not stated) 7.94 µM [inhibitor, partial curve, poor fit]
COCCN(CCOC)c1ncc(Cl)c(C(=O)c2c(C)cc3ccccn23)n1 1 µM [inhibitor, full curve, poor fit]
Cc1ccc(C)c(NC(=O)CSc2nc3nc(-c4cccs4)cc(C(F)(F)F)c3c(=O)[nH]2)c1 10 µM [inhibitor, partial curve, poor fit]
CCCCCCC1CC(CSC(=N)N)OC1=O (configuration not stated) 10 µM [inhibitor, partial curve, poor fit]
Cc1ccccc1NC(=O)c1cc(C(=O)c2cc(Cl)ccc2O)cn(-c2ccccc2C)c1=O 6.31 µM [inhibitor, partial curve, poor fit]
Cc1nc(-c2ccc(S(=O)(=O)Oc3ccccc3Cl)s2)cs1 10 µM [inhibitor, single point]
COc1ccc(/C=N/Nc2ccc(C(=O)O)cc2)cc1Br 7.08 µM [inhibitor, partial curve, poor fit]
COc1ccc(-c2[nH]c(-c3ccc(Cl)cc3)nc2SCC(=O)Nc2nccs2)cc1 12.6 µM [inhibitor, partial curve]
Fc1ccccc1COc1ccc(C(=S)N2CCCC2)cc1 15.8 µM [inhibitor, single point]
CCN(CC(=O)Nc1cccc(OC)c1)CC(=O)Nc1ccc(C)cc1Cl 7.08 µM [inhibitor, partial curve, poor fit]
COc1ccc(OC)c(CCNc2ncnc3onc(-c4ccc(Cl)cc4)c23)c1 11.2 µM [inhibitor, single point]
CC(C)Oc1cccc(C(=O)C2CCCN(C(=O)c3noc4c3CCCC4)C2)c1 (configuration not stated) 2.51 µM [inhibitor, full curve, poor fit]
CC(C)Cc1nnc(NC(=O)c2ccc3c(c2)OCCO3)s1 14.1 µM [inhibitor, single point]
CCN(CC)c1ccc(/C=C(\C#N)c2ccccn2)cc1 7.94 µM [inhibitor, partial curve, poor fit]
Cc1ccc(NC(=O)c2nc[nH]c2C(=O)N[C@@H](C)c2ccccc2)cc1 28.2 µM [inhibitor, single point]
CCc1ccc2nc(SCC(=O)N3CCCCC3)c(C#N)cc2c1 28.2 µM [inhibitor, single point]
CC(Oc1ccc(-c2ccccc2)c(F)c1)c1ccn(S(=O)(=O)c2ccc(F)cc2)n1 (configuration not stated) 6.31 µM [inhibitor, partial curve, poor fit]
CCCS(=O)(=O)c1c(S(=O)(=O)CCC)c2c(N)cccn2c1C(=O)c1ccc(Br)cc1 8.91 µM [inhibitor, partial curve]
O=C(COC(=O)C(c1ccccc1)c1ccccc1)NCc1ccco1 31.6 µM [inhibitor, single point]
CCN(CC)CCN(Cc1cc2cc3c(cc2[nH]c1=O)OCO3)C(=S)NCc1ccco1 10 µM [inhibitor, partial curve, poor fit]
CN(C)c1cc(-c2ccc(Br)cc2)oc(=O)c1Cl 10 µM [inhibitor, single point]
C/C=C/c1ccc(OCC(=O)Nc2cc(Cl)ccc2-n2cncn2)c(OC)c1 17.8 µM [inhibitor, single point]
Cc1c(C)n(CCC#N)c2ccc(Cl)cc12 28.2 µM [inhibitor, single point]
Cc1cccc(-n2cc(CNCCc3nc(C)cc(C)n3)c(-c3cccc(F)c3)n2)c1 7.08 µM [inhibitor, partial curve, poor fit]
Cc1ccc2c(Sc3ccc(Cl)cc3)c(C(=O)N3CCCCC3)[nH]c2c1 11.2 µM [inhibitor, partial curve, poor fit]
CCN(C(=O)COC(=O)c1cc(S(=O)(=O)Nc2c(C)n(C)n(-c3ccccc3)c2=O)ccc1Cl)C1CCCCC1 28.2 µM [inhibitor, single point]
O=C(NCc1ccccc1)c1onc(CSc2nc3ccccc3[nH]2)c1C(=O)NCc1ccccc1 12.6 µM [inhibitor, partial curve, poor fit]
CCCCC(=O)Nc1cccc(-c2nnc(-c3ccccc3)o2)c1 28.2 µM [inhibitor, single point]
Cc1ccc(SC(CC(=O)c2ccc(C(C)(C)C)cc2)C(=O)O)cc1 (configuration not stated) 15.8 µM [inhibitor, partial curve, poor fit]

Potency, active:
CN(C)C(=O)CSc1cccc2cccnc12 2.82 µM

Activity change, negative = inhibition, inactive:
COc1ccc(-c2csc(-c3cccnc3)n2)cc1C 76.8%
CC(C)c1ccc(OCC(=O)Nc2ccc(S(=O)(=O)Nc3ncccn3)cc2)cc1 0.672%
Cc1nc(-n2nc(C)c(Cc3ccc(Cl)cc3)c2C)sc1C(=O)N1CCC(C)CC1 11%
CC(N=Cc1cccc(O)c1O)c1ccccc1 (configuration not stated) 22.6%
Cc1ccc(NC(=O)CSc2nc3c(oc4ccccc43)c(=O)n2Cc2ccco2)cc1F 16.6%
CCN(CC)c1ccc(NC(=O)COCc2cc(-c3ccc4c(c3)OCO4)on2)c(C)c1 -4.49%
Cn1c(CN2CCOCC2)c(C#N)c2ccccc21 -8.33%
COc1ccc(C(=O)NC2CCCCCC2)cc1S(=O)(=O)N1CCOCC1 5.62%
CCOC(=O)c1[nH]c(C)c(C(=O)Nc2ccc(C)c(C)c2)c1C -15.6%
Cc1nn(-c2ccccc2)c2sc(C(=O)NCCN3CCOCC3)cc12 -21.3%
COc1ccnc2c1c(=O)n(Cc1c(F)cccc1Cl)c(=O)n2C 1.59%
Cc1ccc(NC(=O)c2ccc(-n3cncn3)c([N+](=O)[O-])c2)cc1 -2.67%
